These results are taken from paper PMC7819943, “Rice protein-binding microarrays: a tool to detect cis-acting elements near promoter regions in rice”.

The list shows a part of the results.

In this experiment the target is T1, OsWOX13 (Oryza sativa, UniProt Q5QMM3 1-267).
T1 sequence: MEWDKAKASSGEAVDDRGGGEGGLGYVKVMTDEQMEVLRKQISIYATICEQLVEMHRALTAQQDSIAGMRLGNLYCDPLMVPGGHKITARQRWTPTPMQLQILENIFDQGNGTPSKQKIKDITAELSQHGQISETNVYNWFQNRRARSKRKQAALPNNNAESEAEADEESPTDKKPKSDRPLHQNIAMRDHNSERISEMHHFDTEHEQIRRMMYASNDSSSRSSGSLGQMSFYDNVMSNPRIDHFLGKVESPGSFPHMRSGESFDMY
Briefly: protein-binding microarray (RPBM); PBS, 2% BSA, 51.3 ng/ul salmon testes DNA, 50 uM zinc acetate, 200 nM TF, 25 C, 1 h; high values mean tight binding. As to conditions: protein: recombinant; tags: N-terminal polyhistidine and DsRed monomer fusion (pET32a); label: CyDye5-dUTP incorporated in the synthesized complementary strand; 3' TTTTT single-stranded linker to array surface; dsDNA, one strand shown. In outline: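 An Axon 4000B scanner gave the binding signal as per-feature fluorescence intensity in arbitrary units. This followed washing of a custom Agilent array that had been incubated for 1 h at 25 °C with 200 nM protein in PBS, 2% BSA, salmon testes DNA and 50 µM zinc acetate. The proteins were transcription factors fused at the N-terminus to polyhistidine and DsRed, expressed in E. coli BL21-CodonPlus and purified on Ni–NTA.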
For the sequence “GCAATAATCAATCTATATAAGCTAACACAATTGTTGACAACGGAGTCACCTAGTGCAG”, the binding signal was 16800 fluorescence intensity (a.u.).

With “CATTATCAATTCCCTCGTGTAAACTCCCAATCTCCTTCCCCGGAGTCACCTAGTGCAG”, the binding signal is 3650 fluorescence intensity (a.u.).

Take “CATGATTGGTTGAAAGTTGCCTGAATTCCAAGTCAAACTCCGGAGTCACCTAGTGCAG”: the binding signal was 23000 fluorescence intensity (a.u.).

On to “TTATCTCATGGTATTCTAATTGACAGTGGGAAGCAACATGCGGAGTCACCTAGTGCAG”, for which the binding signal was 8500 fluorescence intensity (a.u.).

As for “GGAAAGTGATTATTAGAGTTTGTGTCGAATATGTGTACAACGGAGTCACCTAGTGCAG”, the binding signal is 7650 fluorescence intensity (a.u.).

For the sequence “AAGAATTAATTAATGTTTAACTAGATGGCCTTATTATCTCCGGAGTCACCTAGTGCAG”, the binding signal is 34300 fluorescence intensity (a.u.).

In the case of “TTACTTAATTAGAGTGCATGTTTACCTATTCAAAAGTGTTCGGAGTCACCTAGTGCAG”, the binding signal is 27400 fluorescence intensity (a.u.).

As to “TTTGAGCATAATTACGCCATAATTTAACAATGTGGTGCTTCGGAGTCACCTAGTGCAG”, the binding signal was 30200 fluorescence intensity (a.u.).

Turning to “TGTAACTCGTTAATTTATAGTCCTCATATTTTATCAATTCCGGAGTCACCTAGTGCAG”, the binding signal is 7980 fluorescence intensity (a.u.).

Take “GAAAATTAGATGGGACACATCCTATTAGTACAAACTTAAGCGGAGTCACCTAGTGCAG”: the binding signal is 11400 fluorescence intensity (a.u.).

As to “GTGCATGATGATTGTAAGATAAATGTAGCGTCAAGTAACACGGAGTCACCTAGTGCAG”, the binding signal was 15700 fluorescence intensity (a.u.).

Take “ATGTTTAACGTTAACGTCGTAATTAAATGACACAAACCGACGGAGTCACCTAGTGCAG”: the binding signal was 13400 fluorescence intensity (a.u.).

“CTTAACAACAACAAACTGGTTGGGACAGTACCATCTCTAGCGGAGTCACCTAGTGCAG”: the binding signal was 5690 fluorescence intensity (a.u.).

Consider “AATCAATAAATTATTAATAACATTAGTACCTGGTTGAACGCGGAGTCACCTAGTGCAG”, for which the binding signal was 14800 fluorescence intensity (a.u.).

As for “CCCTAATGAGTTACTATTATAGATGCGCTTGTCTTCAACGCGGAGTCACCTAGTGCAG”, the binding signal is 5210 fluorescence intensity (a.u.).

With “ATAATTTGCAGACTTAATATTATCCAAGAAGATAGGAGTACGGAGTCACCTAGTGCAG”, the binding signal is 5140 fluorescence intensity (a.u.).

As to “ACCTCGATTACTAAATTATAGTCTCTTGCACACCGATGAACGGAGTCACCTAGTGCAG”, the binding signal was 10500 fluorescence intensity (a.u.).

Consider “CAAAATAATATATTAATTCTAGACTAATGACAACATGCACCGGAGTCACCTAGTGCAG”, for which the binding signal is 4940 fluorescence intensity (a.u.).

Take “TTATTTTGTGATTACTATCTCTCCGTTCATGTTTCTATCTCGGAGTCACCTAGTGCAG”: the binding signal is 5480 fluorescence intensity (a.u.).

As to “ATATAATGGACTACAGCACATTGGTTCCCATTTGCGTTAGCGGAGTCACCTAGTGCAG”, the binding signal was 3260 fluorescence intensity (a.u.).

As to “CCATTTACTAGCTGATTGGGCTCGAGATAGATTTGGTAAACGGAGTCACCTAGTGCAG”, the binding signal is 14200 fluorescence intensity (a.u.).

“GACGATGATTGATCCAATGAAAACCCTTCAAACAAAGGTTCGGAGTCACCTAGTGCAG”: the binding signal was 48900 fluorescence intensity (a.u.).

As to “TATTCAATAACTAAATTAATGCCTGATTTACGTTGTTCGTCGGAGTCACCTAGTGCAG”, the binding signal is 17400 fluorescence intensity (a.u.).

As to “AGATATATGAAATTATAAATTACATGTTTGCGAGTATATTCGGAGTCACCTAGTGCAG”, the binding signal was 5370 fluorescence intensity (a.u.).

As to “GGTAAAAGAATAATTAGCTAGTAGCGACATGGCATCTACTCGGAGTCACCTAGTGCAG”, the binding signal was 5620 fluorescence intensity (a.u.).

As to “TATCATTAGGAGTGCTAATTTGTCTATTTAGTACCATTTTCGGAGTCACCTAGTGCAG”, the binding signal is 3230 fluorescence intensity (a.u.).

On to “AAATAAATTGTTGCCAAAACTTATTTAAATCACCTGACGCCGGAGTCACCTAGTGCAG”, for which the binding signal is 17600 fluorescence intensity (a.u.).

As for “TGCTACACATCTGAAACTGATTAGTGATTTCTTGTCTCCTCGGAGTCACCTAGTGCAG”, the binding signal was 6470 fluorescence intensity (a.u.).

Take “CTGGGTGTGGGTGTGGGTCTGGGTCTGGGTGGAAGAGGAACGGAGTCACCTAGTGCAG”: the binding signal was 5770 fluorescence intensity (a.u.).

As to “CTAATTTAAAATCTATCATTTTCTAAATTTGAAACGGTTTCGGAGTCACCTAGTGCAG”, the binding signal is 17700 fluorescence intensity (a.u.).

For “AGCTCGTGGATTGGCAGATTAATCTTTGAATTTGCAAAGGCGGAGTCACCTAGTGCAG”, the binding signal is 7350 fluorescence intensity (a.u.).

Regarding “AAGATGGGGAAATTTAACAGATGAAATTTACCTCGAACGACGGAGTCACCTAGTGCAG”, the binding signal was 7800 fluorescence intensity (a.u.).

Regarding “ACTAATTAATTACTTGTAAGTTTTGTAACTCAACTTAAATCGGAGTCACCTAGTGCAG”, the binding signal is 49200 fluorescence intensity (a.u.).

As to “GACGAATTTATAGCTAATTTGCACTCAAGTAAGACAAACCCGGAGTCACCTAGTGCAG”, the binding signal is 9530 fluorescence intensity (a.u.).

On to “CGTCTAATCCGATTATAGATTGTTATATTCTCGGAGGGAGCGGAGTCACCTAGTGCAG”, for which the binding signal is 9290 fluorescence intensity (a.u.).

With “CACATCAACCTGCACCAATCATGCCATCGAGATCACAACACGGAGTCACCTAGTGCAG”, the binding signal is 3970 fluorescence intensity (a.u.).

For “GGCTGGTTATCTGATGAAATTATTGTGAATACCATACACTCGGAGTCACCTAGTGCAG”, the binding signal is 4860 fluorescence intensity (a.u.).

As to “CCCAATTTTACAATTAACGACCATCGCTTCGTCTGGTCGTCGGAGTCACCTAGTGCAG”, the binding signal is 16100 fluorescence intensity (a.u.).

Regarding “CATCAATCAACAGCCCCTTAATCCTTGCAGTTGATGTATACGGAGTCACCTAGTGCAG”, the binding signal is 30600 fluorescence intensity (a.u.).

For the sequence “TCGTTACCGTTAATTATATAATTTACTGAGTAAATTATATCGGAGTCACCTAGTGCAG”, the binding signal is 18000 fluorescence intensity (a.u.).

As for “CAACTTTAAATTTGAGTGAAAATTTAAATTTTGGTCCTAACGGAGTCACCTAGTGCAG”, the binding signal is 9350 fluorescence intensity (a.u.).

In the case of “CCCTCAATAATTAGCGGCTCAGCCGTGTCACCACTAGGGTCGGAGTCACCTAGTGCAG”, the binding signal was 17200 fluorescence intensity (a.u.).
